Experimental data: the supplement of paper PMC8728848
The other results are listed elsewhere or left out.

Columns and labels:
Experiment in all cases: glycan array binding signal (z-score within array); higher = stronger binding
Details in all cases: glycan notation: IUPAC condensed, linker removed
[1] = target: Man(a1-2)Man(a1-3)[Man(a1-2)Man(a1-6)]Man(a1-6)[Man(a1-2)Man(a1-2)Man(a1-3)]Man
Summary of the method: (§1)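 From the Consortium for Functional Glycomics database, 3228 arrays were curated, keeping only those whose protein sequence was available. Binding is given as a within-array Z-score averaged across arrays sharing a protein sequence and across linkers. Negative Z-scores can be read as non-binding.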

[2] = target: Man(a1-2)Man(a1-3)[Man(a1-2)Man(a1-6)]Man(a1-6)[Man(a1-2)Man(a1-2)Man(a1-3)]Man(b1-4)GlcNAc(b1-4)GlcNAc
Summary of the method: as §1

[3] = target: Man(a1-2)Man(a1-3)[Man(a1-6)]Man(a1-6)[Man(a1-2)Man(a1-3)]Man(b1-4)GlcNAc(b1-4)GlcNAc
Summary of the method: as §1

[4] = target: Man(a1-2)Man(a1-6)[Man(a1-3)]Man(a1-6)[Man(a1-2)Man(a1-2)Man(a1-3)]Man
Summary of the method: as §1

[5] = target: Man(a1-2)Man(a1-6)[Man(a1-3)]Man(a1-6)[Man(a1-2)Man(a1-2)Man(a1-3)]Man(b1-4)GlcNAc(b1-4)GlcNAc
Summary of the method: as §1

[6] = target: Man(a1-3)[Man(a1-6)]Man
Summary of the method: as §1

[7] = target: Man(a1-3)[Man(a1-6)]Man(a1-6)[Man(a1-2)Man(a1-3)]Man(b1-4)GlcNAc(b1-4)GlcNAc
Summary of the method: as §1

[8] = target: Man(a1-3)[Man(a1-6)]Man(a1-6)[Man(a1-3)]Man
Summary of the method: as §1

[9] = target: Man(a1-3)[Man(a1-6)]Man(a1-6)[Man(a1-3)]Man(b1-4)GlcNAc(b1-4)GlcNAc
Summary of the method: as §1

[10] = target: Man(a1-3)[Man(a1-6)]Man(b1-4)GlcNAc(b1-4)GlcNAc
Summary of the method: as §1

[11] = target: Man(a1-3)[Man(a1-6)]Man(b1-4)GlcNAc(b1-4)[Fuc(a1-6)]GlcNAc
Summary of the method: as §1

[12] = target: Man(a1-6)Man
Summary of the method: as §1

[13] = target: Man(b1-4)GlcNAc
Summary of the method: as §1

[14] = target: MurNAc(b1-4)GlcNAc
Summary of the method: as §1

[15] = target: Neu5Ac(a2-3)Gal
Summary of the method: as §1

[16] = target: Neu5Ac(a2-3)Gal(b1-3)GalNAc
Summary of the method: as §1

[17] = target: Neu5Ac(a2-3)Gal(b1-3)GalNAc(b1-3)Gal(a1-4)Gal(b1-4)Glc
Summary of the method: as §1

[18] = target: Neu5Ac(a2-3)Gal(b1-3)GalNAc(b1-4)Gal(b1-4)Glc
Summary of the method: as §1

[19] = target: Neu5Ac(a2-3)Gal(b1-3)GalNAc(b1-4)[Neu5Ac(a2-3)]Gal(b1-4)Glc
Summary of the method: as §1

[20] = target: Neu5Ac(a2-3)Gal(b1-3)GalNAc(b1-4)[Neu5Ac(a2-8)Neu5Ac(a2-3)]Gal(b1-4)Glc
Summary of the method: as §1

[21] = target: Neu5Ac(a2-3)Gal(b1-3)GalNAc6S
Summary of the method: as §1

[22] = target: Neu5Ac(a2-3)Gal(b1-3)GlcNAc
Summary of the method: as §1

[23] = target: Neu5Ac(a2-3)Gal(b1-3)GlcNAc(b1-2)Man
Summary of the method: as §1

[24] = target: Neu5Ac(a2-3)Gal(b1-3)GlcNAc(b1-2)Man(a1-3)[GlcNAc(b1-4)][Neu5Ac(a2-3)Gal(b1-3)GlcNAc(b1-2)Man(a1-6)]Man(b1-4)GlcNAc(b1-4)GlcNAc
Summary of the method: as §1

[25] = target: Neu5Ac(a2-3)Gal(b1-3)GlcNAc(b1-2)Man(a1-3)[Neu5Ac(a2-3)Gal(b1-3)GlcNAc(b1-2)Man(a1-6)]Man(b1-4)GlcNAc(b1-4)GlcNAc
Summary of the method: as §1

[26] = target: Neu5Ac(a2-3)Gal(b1-3)GlcNAc(b1-2)[Neu5Ac(a2-3)Gal(b1-3)GlcNAc(b1-4)]Man(a1-6)[Neu5Ac(a2-3)Gal(b1-3)GlcNAc(b1-2)Man(a1-3)]Man(b1-4)GlcNAc(b1-4)GlcNAc
Summary of the method: as §1

[27] = target: Neu5Ac(a2-3)Gal(b1-3)GlcNAc(b1-3)Gal(b1-3)GlcNAc
Summary of the method: as §1

[28] = target: Neu5Ac(a2-3)Gal(b1-3)GlcNAc(b1-3)Gal(b1-4)GlcNAc
Summary of the method: as §1

[29] = target: Neu5Ac(a2-3)Gal(b1-3)GlcNAc(b1-3)GalNAc
Summary of the method: as §1

[30] = target: Neu5Ac(a2-3)Gal(b1-3)GlcNAc(b1-6)GalNAc
Summary of the method: as §1

[31] = target: Neu5Ac(a2-3)Gal(b1-3)GlcNAc6S
Summary of the method: as §1

[32] = target: Neu5Ac(a2-3)Gal(b1-3)[Fuc(a1-4)]GlcNAc
Summary of the method: as §1

[33] = target: Neu5Ac(a2-3)Gal(b1-3)[Fuc(a1-4)]GlcNAc(b1-3)Gal(b1-3)[Fuc(a1-4)]GlcNAc
Summary of the method: as §1

[34] = target: Neu5Ac(a2-3)Gal(b1-3)[Fuc(a1-4)]GlcNAc(b1-3)Gal(b1-4)[Fuc(a1-3)]GlcNAc
Summary of the method: as §1

[35] = target: Neu5Ac(a2-3)Gal(b1-3)[GlcNAc(b1-6)]GalNAc
Summary of the method: as §1

[36] = target: Neu5Ac(a2-3)Gal(b1-3)[Neu5Ac(a2-6)]GalNAc
Summary of the method: as §1

[37] = target: Neu5Ac(a2-3)Gal(b1-3)[Neu5Ac(a2-6)]GlcNAc(b1-3)[Fuc(a1-3)[Gal(b1-4)]GlcNAc(b1-6)]Gal(b1-4)Glc
Summary of the method: as §1

B1: Pwp3 (Candida glabrata) (protein)
chain: MGSSHHHHHHSSGLVPRGSHMASKNPVDFTTVCQFPDNFSKKPGFLATTARLGLWITGNSYKELLNYPGTFTLTTQQASTTTPNIQLRGTDLFTTIYGLTVYPLYLLVELQGYFVPTQSGMYTFSLTGSDDAAIIFIGNPSTFPCDAFKTWPQATANDITVTDSINPSRTLYMVKGVAYPLRIAYYNGLGNGVLNAAFTDPSGTKRTDWNGYIWQYDQCSTCTYK
Q: How did the “glycan array binding signal (z-score)” value [1] turn out when B1 was run?
A: -1.21

Q: And the “glycan array binding signal (z-score)” value [2]?
A: -0.187

Q: What about the “glycan array binding signal (z-score)” value [3] of the same binder?
A: -0.595

Q: And the “glycan array binding signal (z-score)” value [4]?
A: -0.64

Q: What about the “glycan array binding signal (z-score)” value [5] of the same binder?
A: -0.066

Q: And the “glycan array binding signal (z-score)” value [6]?
A: -0.774

Q: And the “glycan array binding signal (z-score)” value [7]?
A: 2.06

Q: And the “glycan array binding signal (z-score)” value [8]?
A: 4.4

Q: And the “glycan array binding signal (z-score)” value [9]?
A: -0.244

Q: What about the “glycan array binding signal (z-score)” value [10] of the same binder?
A: -0.201

Q: What about the “glycan array binding signal (z-score)” value [11] of the same binder?
A: 0.348

Q: What about the “glycan array binding signal (z-score)” value [12] of the same binder?
A: -0.259

Q: What about the “glycan array binding signal (z-score)” value [13] of the same binder?
A: -0.382

Q: And the “glycan array binding signal (z-score)” value [14]?
A: -0.683

Q: What about the “glycan array binding signal (z-score)” value [15] of the same binder?
A: -0.574

Q: What about the “glycan array binding signal (z-score)” value [16] of the same binder?
A: -0.302

Q: And the “glycan array binding signal (z-score)” value [17]?
A: -0.393

Q: What about the “glycan array binding signal (z-score)” value [18] of the same binder?
A: -0.358

Q: What about the “glycan array binding signal (z-score)” value [19] of the same binder?
A: -0.283

Q: What about the “glycan array binding signal (z-score)” value [20] of the same binder?
A: -0.441

Q: What about the “glycan array binding signal (z-score)” value [21] of the same binder?
A: -0.239

Q: What about the “glycan array binding signal (z-score)” value [22] of the same binder?
A: -0.088

Q: And the “glycan array binding signal (z-score)” value [23]?
A: -0.487

Q: What about the “glycan array binding signal (z-score)” value [24] of the same binder?
A: 0.336

Q: What about the “glycan array binding signal (z-score)” value [25] of the same binder?
A: -0.624

Q: What about the “glycan array binding signal (z-score)” value [26] of the same binder?
A: -0.089

Q: And the “glycan array binding signal (z-score)” value [27]?
A: 1.06

Q: And the “glycan array binding signal (z-score)” value [28]?
A: -0.248

Q: And the “glycan array binding signal (z-score)” value [29]?
A: 0.015

Q: What about the “glycan array binding signal (z-score)” value [30] of the same binder?
A: 3.45

Q: What about the “glycan array binding signal (z-score)” value [31] of the same binder?
A: -0.443

Q: What about the “glycan array binding signal (z-score)” value [32] of the same binder?
A: -0.331

Q: What about the “glycan array binding signal (z-score)” value [33] of the same binder?
A: -0.245

Q: What about the “glycan array binding signal (z-score)” value [34] of the same binder?
A: 0.335

Q: And the “glycan array binding signal (z-score)” value [35]?
A: 0.308

Q: What about the “glycan array binding signal (z-score)” value [36] of the same binder?
A: -0.17

Q: What about the “glycan array binding signal (z-score)” value [37] of the same binder?
A: -0.33
